From paper PMC6212790 come the findings set out here.

This is one part of the list. At the low end of the ranking the order means little.

The target in this assay is T1, GST-Rok-C97-191 (UniProt O34857).
T1 sequence: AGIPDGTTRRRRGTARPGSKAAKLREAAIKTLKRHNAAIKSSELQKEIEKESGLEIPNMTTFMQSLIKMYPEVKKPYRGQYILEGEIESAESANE
Briefly: protein binding microarray.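 Note: rank score from −0.5 (least bound) to 0.5 (best bound).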 The settings on record: Rok is a gene silencer of Bacillus subtilis; high values mean tight binding; most listed sequences are background and not binding sites; double strand, one strand shown.
CACATATG registered a binding signal of 0.197 E-score.
In turn, AGGCTGTA gave a binding signal of -0.0162 E-score.
Then ACCGTTGA, with 0.0449 E-score.
The sequence ACATGGTG returned a binding signal of -0.0396 E-score.
Then GGATGGTA, with 0.225 E-score.
Consider CGTGGGGA, for which the binding signal is -0.266 E-score.
On to CAGCAACA, for which the binding signal is 0.00686 E-score.
AGCGGACA: the binding signal was -0.0311 E-score.
The sequence AACGACCC showed a binding signal of -0.0945 E-score.
Sequence ACTGAAGG returned a binding signal of -0.0541 E-score.
In turn, ACCACTCG displayed a binding signal of -0.181 E-score.
In the case of GACTAGTA, the binding signal was 0.368 E-score.
Take AAGCACTT: the binding signal amounted to 0.0124 E-score.
Sequence CAGCTCAC yielded a binding signal of -0.08 E-score.
GCCACACA returned a binding signal of -0.0963 E-score.
With CTTGTCGA, the binding signal was -0.125 E-score.
GCTCATAA: the binding signal was -0.0493 E-score.
Consider TAAACTAA, for which the binding signal is 0.234 E-score.
The same measure for AATACCAA: 0.0977 E-score; for ATCGTATG: 0.0291 E-score.
The same measure for GTAATACA: 0.258 E-score.
GCTGACCC: the binding signal was -0.326 E-score.
As to ACTTTACG, the binding signal came to 0.0222 E-score.
AGCAATCA registered a binding signal of 0.142 E-score.
AGTTTTCA showed a binding signal of 0.131 E-score.
Consider GAACTCGA, for which the binding signal is -0.059 E-score.
The sequence CGATGGCC returned a binding signal of -0.0531 E-score.
ATCCCTTC: the binding signal is -0.096 E-score.
TAGTGAAA: the binding signal turned out to be 0.189 E-score.
In the case of AATAGACT, the binding signal worked out at 0.0601 E-score.
CGGTGCTC had a binding signal of -0.157 E-score.
In turn, ACTTGCAA registered a binding signal of 0.0387 E-score.
ATCGATAC: the binding signal turned out to be 0.0929 E-score.
The same measure for GAACATGA: 0.0153 E-score; for CTAAGGTC: -0.121 E-score.
Then CATTTTCG, with 0.0882 E-score; and CTGGAGCA, with -0.0114 E-score; and GTTGCACA, with -0.11 E-score.
Sequence AACCACTG registered a binding signal of -0.127 E-score.
On to ATGGGGCA, for which the binding signal is -0.192 E-score.
On to ACCTATTA, for which the binding signal came to 0.282 E-score.
AGGGTCAT yielded a binding signal of -0.0796 E-score.
In the case of ATTGCTGA, the binding signal was determined as 0.0398 E-score.
CGTTGGCA returned a binding signal of -0.0939 E-score.
CAGGCCGC: the binding signal is -0.274 E-score.
For the sequence GAGGTTAC, the binding signal amounted to 0.0652 E-score.
The sequence TCGCTTCA gave a binding signal of -0.0833 E-score.
Regarding CCAACCAG, the binding signal is -0.224 E-score.
Then AGACTGAC, with -0.0742 E-score.
On to TAACGATA, for which the binding signal was 0.13 E-score.
Then GAAGTCTA, with -0.147 E-score.
Take AGACTGGC: the binding signal was -0.0765 E-score.
In the case of CTTAGGGC, the binding signal is -0.0993 E-score.
Sequence AGTGTGCG came in with a binding signal of -0.136 E-score.
CAGAGTGC yielded a binding signal of -0.222 E-score.
GACGGGGC gave a binding signal of -0.21 E-score.
The same measure for AATTCCAC: 0.117 E-score; for CCTCGTGC: -0.412 E-score.
On to ATCTCTAG, for which the binding signal came out at 0.109 E-score.
The sequence CCATTTAA came in with a binding signal of -0.0111 E-score.
Then GAACTGCA, with -0.00818 E-score; and ACAAGTGC, with 0.0669 E-score.
Take AGTATCAC: the binding signal turned out to be 0.0886 E-score.
Sequence AATGGAAC registered a binding signal of -0.0198 E-score.
In turn, AACGGTAC registered a binding signal of 0.226 E-score.
GGGTGTAC: the binding signal is -0.167 E-score.
In the case of CGCCTAGA, the binding signal came out at 0.031 E-score.
ATCAAAAG displayed a binding signal of -0.0171 E-score.
Then ACTTCACG, with -0.145 E-score; and AAGCCGCC, with -0.39 E-score.
The same measure for CCAGTACA: 0.0219 E-score; for CTGGTGGC: -0.155 E-score; for CGCAGCAC: -0.17 E-score.
Take AGCCAGCA: the binding signal was -0.117 E-score.
Then GTAGCGGA, with -0.164 E-score; and TACCGATA, with 0.339 E-score.
The same measure for ATGTATTA: 0.301 E-score; for CCTTCGAG: -0.263 E-score.
Take CCGTATAC: the binding signal came out at 0.14 E-score.
As to ACGGCAAA, the binding signal was determined as 0.123 E-score.
For the sequence AATTCGCG, the binding signal was found to be 0.135 E-score.
AGCTTACT registered a binding signal of 0.00348 E-score.
Then ACGAGACT, with -0.0621 E-score; and ATGGTGTC, with -0.159 E-score; and GAACTGTA, with 0.161 E-score.
In turn, AAGTATTA came in with a binding signal of 0.349 E-score.
With CTATGTAC, the binding signal was found to be 0.17 E-score.
Regarding GCTTTGCA, the binding signal was -0.23 E-score.
On to ATTCGAAA, for which the binding signal was determined as 0.137 E-score.
For CCTGGTAA, the binding signal amounted to 0.0601 E-score.
The same measure for CACGTTAG: -0.097 E-score.
The same measure for CCCCTAGA: -0.225 E-score.
CCCTTGCA gave a binding signal of -0.225 E-score.
The sequence ATCGCTAC yielded a binding signal of -0.00148 E-score.
Then CCTTTAAA, with -0.182 E-score; and AAATATCC, with 0.083 E-score; and ACACCAGG, with -0.136 E-score.
Regarding CGCGAACC, the binding signal was -0.18 E-score.
Then GCGATTGA, with -0.1 E-score; and CCTGATTA, with -0.0482 E-score; and CCCCCCAA, with -0.226 E-score.
As to ACCAGTGA, the binding signal was 0.024 E-score.
AGTTGATG came in with a binding signal of -0.0235 E-score.
CCGTGATA gave a binding signal of 0.0818 E-score.
GAGCGACA: the binding signal is -0.112 E-score.
Sequence CTAAATTA registered a binding signal of 0.141 E-score.
ACGCCTGC registered a binding signal of -0.115 E-score.
The sequence AGAGGCCG came in with a binding signal of -0.0778 E-score.
In the case of GTCACCAC, the binding signal was -0.205 E-score.
Then AATGTTAA, with 0.19 E-score; and ACCAAGTA, with 0.0883 E-score; and AGGTTACG, with -0.0378 E-score.
Consider ATGAAAGA, for which the binding signal worked out at 0.0937 E-score.
As to CTCGGCTA, the binding signal was -0.00784 E-score.
Sequence AGAGAACC gave a binding signal of 0.11 E-score.
The same measure for CCATCAGC: -0.198 E-score; for CTCGTTAC: -0.0868 E-score.
Then ACCGTACA, with 0.122 E-score.
Then TTCCGCAA, with 0.117 E-score; and GGTTTAAA, with -0.0216 E-score.
Consider AACGGAGA, for which the binding signal was -0.0715 E-score.
With CAGGTCTA, the binding signal is -0.0399 E-score.
Sequence CACCTAAA yielded a binding signal of 0.0109 E-score.
CCGTTCCG showed a binding signal of -0.28 E-score.
AGAAGAGG gave a binding signal of -0.182 E-score.
The same measure for AGGGATCG: -0.222 E-score; for CCTGGGAG: -0.0953 E-score; for GGCATTTA: 0.141 E-score.
Take CACCATAA: the binding signal was found to be 0.0533 E-score.
Sequence TAGAGAAA gave a binding signal of 0.262 E-score.
AGTGCGTA: the binding signal was determined as 0.115 E-score.
AGCCGTCC had a binding signal of -0.224 E-score.
In turn, CAAAGAGA came in with a binding signal of -0.141 E-score.
As to CTAGCATA, the binding signal turned out to be 0.128 E-score.
Consider AGTTTAGG, for which the binding signal was found to be 0.0458 E-score.
As for CACACGAA, the binding signal was -0.0776 E-score.
The same measure for CTTATACC: 0.256 E-score; for GGCAATAA: 0.138 E-score; for CGACAAGA: -0.175 E-score.
Then GTCCCCGA, with -0.327 E-score.
Sequence ACCGTCGA yielded a binding signal of -0.104 E-score.
On to GCAATAGA, for which the binding signal was 0.278 E-score.
On to AACTCCGA, for which the binding signal came to 0.0806 E-score.
Then TTCTCCAA, with 0.146 E-score; and CCCCCCGC, with -0.368 E-score; and ACAGCACG, with -0.0506 E-score.
ACCCGCCC yielded a binding signal of -0.0655 E-score.
Then GAGTGTAA, with 0.0764 E-score; and CAATGGAA, with 0.00895 E-score; and GCCTCTAC, with -0.106 E-score.
TAAATCGA returned a binding signal of 0.0722 E-score.
As for ACCTTCCA, the binding signal was determined as 0.0348 E-score.
For the sequence CATCCGGA, the binding signal is -0.0512 E-score.
ACAATGCA displayed a binding signal of -0.0616 E-score.
Then CCTTGTGC, with -0.0616 E-score.
Sequence AAGAGGCC displayed a binding signal of -0.0911 E-score.
CCGGAATC gave a binding signal of -0.0013 E-score.
Sequence AATTTCTC registered a binding signal of 0.198 E-score.
As to CTAAGTCC, the binding signal is -0.132 E-score.
CACCTTTA registered a binding signal of 0.0225 E-score.
The sequence AATACCCC yielded a binding signal of -0.107 E-score.
In turn, GATCCAGC returned a binding signal of -0.0574 E-score.
For CCTGTCTA, the binding signal is 0.00702 E-score.
The same measure for CCCGGGCC: -0.484 E-score; for AATCGGTA: 0.124 E-score; for GGGCCAAC: -0.235 E-score.
The sequence CAGACCTG gave a binding signal of -0.165 E-score.
GGAACCCA displayed a binding signal of -0.203 E-score.
Then AATCGACG, with -0.0952 E-score.
In turn, CGTAAATC returned a binding signal of 0.0528 E-score.
ACCGAGTA gave a binding signal of 0.0422 E-score.
Turning to TCCATAGA, the binding signal was -0.00397 E-score.
The same measure for AGCCTTGG: -0.19 E-score; for GTAGCAGA: -0.0149 E-score; for AAGCTTCT: 0.141 E-score.
TACTGCAA: the binding signal was 0.0621 E-score.
As for CCTCAACC, the binding signal was -0.0922 E-score.
Sequence CGGGGTCA came in with a binding signal of -0.336 E-score.
The same measure for CAGGGCAA: -0.148 E-score; for CACACAGA: -0.114 E-score.
On to GATTCAAC, for which the binding signal is -0.071 E-score.
Sequence ACGGTGAA showed a binding signal of -0.0293 E-score.
On to GCCAGAAA, for which the binding signal was -0.14 E-score.
On to ACTCTCTC, for which the binding signal was determined as 0.00147 E-score.
In turn, AAGCAACG displayed a binding signal of -0.101 E-score.
Then ATTGATCG, with 0.15 E-score.
The same measure for CGTATCGC: 0.12 E-score.
Turning to AATCGGCA, the binding signal is -0.17 E-score.
Then CGCCACGC, with -0.345 E-score; and CACACAAA, with 0.0652 E-score; and CGTTATTA, with 0.215 E-score.
In the case of AACAACGG, the binding signal is -0.235 E-score.
The sequence TCGTTCAA displayed a binding signal of -0.16 E-score.
The sequence AGCTAATA came in with a binding signal of 0.366 E-score.
AAACCACC registered a binding signal of -0.1 E-score.
As for ACGACTCT, the binding signal is -0.158 E-score.
The sequence GTCACGAA displayed a binding signal of -0.1 E-score.
In turn, GCAATCGA had a binding signal of 0.072 E-score.
Take AGGTTAGA: the binding signal amounted to 0.0796 E-score.
Then CCAGTGCA, with -0.277 E-score; and ACATAGAA, with 0.157 E-score.
Sequence CGATAGAA displayed a binding signal of 0.359 E-score.
Turning to AACCAATT, the binding signal stood at 0.204 E-score.
The same measure for CTTTGTAC: 0.249 E-score.
As to AATTTGAA, the binding signal was -0.0188 E-score.
Then GCTCCATA, with -0.0452 E-score.
Consider ATTTCTCA, for which the binding signal was 0.126 E-score.
CTATGACA: the binding signal was 0.0447 E-score.
GGAGATAA: the binding signal turned out to be 0.122 E-score.
In turn, AAGTGATA had a binding signal of 0.288 E-score.
ATCTGTAG: the binding signal was 0.37 E-score.
For AGTACAGC, the binding signal was 0.174 E-score.
CACGACAA: the binding signal was -0.0945 E-score.
The same measure for ACGGGGTC: -0.275 E-score; for GAAATGTA: 0.329 E-score.
The sequence CCTGCAGC had a binding signal of -0.284 E-score.
For CTGGAGTC, the binding signal is -0.117 E-score.
As to CTTGCACC, the binding signal was -0.00963 E-score.
The same measure for ACTATAAT: 0.299 E-score.
